{"source": "the BET-seq Pho4 binding data (Le et al. 2018)", "note": "The list shows a part of the results. These are noisy estimates, calculated here from bound and input reads."}
{"target": "T1, Pho4 (S. cerevisiae) (UniProt P07270)", "T1 sequence": "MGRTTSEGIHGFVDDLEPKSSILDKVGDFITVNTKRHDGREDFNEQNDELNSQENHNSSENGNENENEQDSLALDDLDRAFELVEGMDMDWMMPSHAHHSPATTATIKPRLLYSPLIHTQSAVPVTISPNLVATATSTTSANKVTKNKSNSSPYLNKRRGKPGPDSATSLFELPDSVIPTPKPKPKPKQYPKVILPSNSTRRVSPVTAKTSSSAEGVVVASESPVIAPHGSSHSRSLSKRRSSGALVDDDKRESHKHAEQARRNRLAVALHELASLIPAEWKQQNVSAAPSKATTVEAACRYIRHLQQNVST", "test": "relative binding free energy (BET-seq); higher = weaker binding", "details": "reference: library average", "units": {"relative binding free energy": "kcal/mol"}}
{"sequence": "ATGTGCACGTGCAGAT", "relative binding free energy": 0}
{"sequence": "ATTTGCACGTGTGGAT", "relative binding free energy": 0.04}
{"sequence": "GGAAACACGTGATTGG", "relative binding free energy": 0.17}
{"sequence": "GGCCGCACGTGTGGTT", "relative binding free energy": 0.05}
{"sequence": "GTGGGCACGTGTTGAC", "relative binding free energy": -0.21}
{"sequence": "CGCAGCACGTGGTGTA", "relative binding free energy": -0.11}
{"sequence": "CGGTGCACGTGTTGAG", "relative binding free energy": 0.07}
{"sequence": "TCGTCCACGTGGAGGT", "relative binding free energy": 0.05}
{"sequence": "GGTGTCACGTGATATG", "relative binding free energy": 0.25}
{"sequence": "AGCGGCACGTGAGGTA", "relative binding free energy": 0.22}
{"sequence": "AGTAGCACGTGCGATT", "relative binding free energy": -0.02}
{"sequence": "TCGGCCACGTGATGGT", "relative binding free energy": 0.15}
{"sequence": "TGAAACACGTGGCTGG", "relative binding free energy": -0.03}
{"sequence": "CTCTACACGTGTGGGG", "relative binding free energy": 0.08}
{"sequence": "GCTTACACGTGTGTGG", "relative binding free energy": 0.11}
{"sequence": "CTTTTCACGTGTGTTC", "relative binding free energy": 0.32}
{"sequence": "TGTGCCACGTGGGGCA", "relative binding free energy": -0.31}
{"sequence": "AATGGCACGTGGGCTT", "relative binding free energy": -0.16}
{"sequence": "GAGGGCACGTGTATAG", "relative binding free energy": -0.11}
{"sequence": "CTAAGCACGTGTGGTA", "relative binding free energy": -0.06}
{"sequence": "GCTTTCACGTGGGCGT", "relative binding free energy": 0.26}
{"sequence": "TTCGGCACGTGGATAG", "relative binding free energy": -0.14}
{"sequence": "TTGATCACGTGGAGGT", "relative binding free energy": 0.03}
{"sequence": "AGAAACACGTGGAGGT", "relative binding free energy": 0.22}
{"sequence": "TGCTGCACGTGAGGGG", "relative binding free energy": 0.21}
{"sequence": "TTTAACACGTGGTTGG", "relative binding free energy": 0.04}
{"sequence": "TGTACCACGTGGGATG", "relative binding free energy": -0.18}
{"sequence": "TATTGCACGTGAGGTA", "relative binding free energy": 0.1}
{"sequence": "GTATTCACGTGGTATC", "relative binding free energy": 0.21}
{"sequence": "ATGTACACGTGGGGTC", "relative binding free energy": -0.11}
{"sequence": "TAGGGCACGTGTACGT", "relative binding free energy": 0.04}
{"sequence": "ATGGTCACGTGGTAAC", "relative binding free energy": 0.06}
{"sequence": "TAAGACACGTGGGGAG", "relative binding free energy": -0.03}
{"sequence": "AATGGCACGTGTTGCA", "relative binding free energy": 0.03}
{"sequence": "CGGGACACGTGGGGTT", "relative binding free energy": -0.08}
{"sequence": "GGGTACACGTGGCCTG", "relative binding free energy": -0.03}
{"sequence": "CGTAGCACGTGCTGGT", "relative binding free energy": -0.13}
{"sequence": "CTGAACACGTGGGGTG", "relative binding free energy": -0.31}
{"sequence": "TTCTTCACGTGCTTTA", "relative binding free energy": 0.4}
{"sequence": "GGGAGCACGTGTTCGA", "relative binding free energy": -0.07}
{"sequence": "TTGGACACGTGAGGTC", "relative binding free energy": 0.2}
{"sequence": "GAGGTCACGTGTTGAA", "relative binding free energy": 0.27}
{"sequence": "TTTGGCACGTGGCTAG", "relative binding free energy": -0.22}
{"sequence": "TGTTTCACGTGTAATC", "relative binding free energy": 0.25}
{"sequence": "GGACTCACGTGTTGGG", "relative binding free energy": 0.15}
{"sequence": "TTGAGCACGTGTAGAG", "relative binding free energy": -0.06}
{"sequence": "AGGGACACGTGATTGA", "relative binding free energy": 0.17}
{"sequence": "GTGTTCACGTGCTTGA", "relative binding free energy": 0.32}
{"sequence": "TAATTCACGTGTTAAA", "relative binding free energy": 0.17}
{"sequence": "TTGTACACGTGAACTG", "relative binding free energy": 0.15}
{"sequence": "CTGATCACGTGGGAGT", "relative binding free energy": 0.06}
{"sequence": "TTAATCACGTGAAAGG", "relative binding free energy": 0.4}
{"sequence": "CGTTACACGTGTAGTA", "relative binding free energy": 0.2}
{"sequence": "ATATACACGTGTGTTA", "relative binding free energy": -0.12}
{"sequence": "ATTTGCACGTGAGGTA", "relative binding free energy": 0.16}
{"sequence": "GGTTCCACGTGCTTTT", "relative binding free energy": 0.1}
{"sequence": "ATGGGCACGTGGTGCC", "relative binding free energy": -0.23}
{"sequence": "AATAGCACGTGGATTT", "relative binding free energy": 0.07}
{"sequence": "GTGAACACGTGAGGGA", "relative binding free energy": 0.4}
{"sequence": "GTTAGCACGTGAGTGG", "relative binding free energy": 0.22}
{"sequence": "TGTGACACGTGGAGGA", "relative binding free energy": -0.04}
{"sequence": "ATGGGCACGTGTGAAA", "relative binding free energy": 0.01}
{"sequence": "AGGCGCACGTGGGGGC", "relative binding free energy": -0.26}
{"sequence": "TAAGTCACGTGGTGCC", "relative binding free energy": 0.03}
{"sequence": "TGTAACACGTGACGTG", "relative binding free energy": 0.03}
{"sequence": "TTAAGCACGTGGTCAT", "relative binding free energy": -0.18}
{"sequence": "TTAGTCACGTGCTGAT", "relative binding free energy": 0.21}
{"sequence": "GGTGGCACGTGGGGGA", "relative binding free energy": -0.17}
{"sequence": "CATGGCACGTGTCTGG", "relative binding free energy": -0.09}
{"sequence": "AAGTCCACGTGATTTT", "relative binding free energy": 0.4}
{"sequence": "TCATGCACGTGTATGT", "relative binding free energy": -0.06}
{"sequence": "CAGTACACGTGTGGGT", "relative binding free energy": 0.09}
{"sequence": "GAGGGCACGTGATATG", "relative binding free energy": -0.09}
{"sequence": "ACTGTCACGTGGTGCG", "relative binding free energy": -0.02}
{"sequence": "TTAGACACGTGTCGTT", "relative binding free energy": 0}
{"sequence": "AAAGGCACGTGGAGGT", "relative binding free energy": -0.13}
{"sequence": "AATTTCACGTGGGAAA", "relative binding free energy": 0.29}
{"sequence": "ATGCGCACGTGTGTAG", "relative binding free energy": -0.1}
{"sequence": "TAATACACGTGTAGGG", "relative binding free energy": -0.06}
{"sequence": "CGTTACACGTGTGGGG", "relative binding free energy": 0.18}
{"sequence": "ACATGCACGTGGCGTG", "relative binding free energy": -0.16}
{"sequence": "TGGTTCACGTGGCCTG", "relative binding free energy": 0.26}
{"sequence": "GATATCACGTGCGAGG", "relative binding free energy": 0.4}
{"sequence": "CTGTTCACGTGTAAGG", "relative binding free energy": 0.32}
{"sequence": "TTTAGCACGTGAGAGG", "relative binding free energy": 0.37}
{"sequence": "TGAGGCACGTGGTTAA", "relative binding free energy": -0.26}
{"sequence": "GCTCTCACGTGGGGAG", "relative binding free energy": 0.29}
{"sequence": "GTATACACGTGGGTCT", "relative binding free energy": -0.07}
{"sequence": "TGTATCACGTGTTGAA", "relative binding free energy": 0.1}
{"sequence": "TGATACACGTGTAAGG", "relative binding free energy": 0.03}
{"sequence": "GTATTCACGTGCGTAT", "relative binding free energy": 0.15}
{"sequence": "TTTCTCACGTGGTATG", "relative binding free energy": 0.09}
{"sequence": "GTTATCACGTGCTGTT", "relative binding free energy": 0.07}
{"sequence": "AGTGACACGTGGGGGA", "relative binding free energy": -0.15}
{"sequence": "TGGTGCACGTGTAATA", "relative binding free energy": 0.02}
{"sequence": "TGAGTCACGTGAGAGT", "relative binding free energy": 0.38}
{"sequence": "TTCAACACGTGGTTGT", "relative binding free energy": -0.07}
{"sequence": "ATCGCCACGTGGGTTG", "relative binding free energy": -0.23}
{"sequence": "GTGTTCACGTGCAGTA", "relative binding free energy": 0.15}
{"sequence": "AAAAGCACGTGTTGTA", "relative binding free energy": -0.13}
{"sequence": "AGTTGCACGTGGTGGG", "relative binding free energy": -0.04}
{"sequence": "TGTAACACGTGTAATG", "relative binding free energy": 0.04}
{"sequence": "CTGTGCACGTGTGTGT", "relative binding free energy": 0}
{"sequence": "GTGTTCACGTGTTACT", "relative binding free energy": 0.25}
{"sequence": "CTTTTCACGTGGCGGT", "relative binding free energy": 0.07}
{"sequence": "CTTGACACGTGGGTTC", "relative binding free energy": -0.08}
{"sequence": "GTTAACACGTGAGGTC", "relative binding free energy": 0.29}
{"sequence": "TCATGCACGTGAGGAG", "relative binding free energy": 0.24}
{"sequence": "GTCGTCACGTGGGAGT", "relative binding free energy": 0.16}
{"sequence": "TGTTCCACGTGAGTGG", "relative binding free energy": 0.18}
{"sequence": "AATTCCACGTGGTTAG", "relative binding free energy": 0.1}
{"sequence": "TTGAGCACGTGCGGCA", "relative binding free energy": -0.05}
{"sequence": "CGGGGCACGTGATAGC", "relative binding free energy": -0.01}
{"sequence": "TCGTTCACGTGTTGGC", "relative binding free energy": 0.46}
{"sequence": "GAGTTCACGTGGTGTT", "relative binding free energy": 0.22}
